Paper PMC4336329 (PLoS ONE, 2015)
Among all 310,000 compounds or so, about 2,200 (0.71%) showed an effect of 50% or more. The effect is printed as a negative number. The list shows a part of the results.

Biological target: human ether-à-go-go-related gene (hERG) potassium channel (human, UniProt Q12809)
Test: primary screen, population patch clamp on CHO cells stably expressing hERG

Chain of human ether-à-go-go-related gene (hERG) potassium channel (Q12809 whole entry, looked up): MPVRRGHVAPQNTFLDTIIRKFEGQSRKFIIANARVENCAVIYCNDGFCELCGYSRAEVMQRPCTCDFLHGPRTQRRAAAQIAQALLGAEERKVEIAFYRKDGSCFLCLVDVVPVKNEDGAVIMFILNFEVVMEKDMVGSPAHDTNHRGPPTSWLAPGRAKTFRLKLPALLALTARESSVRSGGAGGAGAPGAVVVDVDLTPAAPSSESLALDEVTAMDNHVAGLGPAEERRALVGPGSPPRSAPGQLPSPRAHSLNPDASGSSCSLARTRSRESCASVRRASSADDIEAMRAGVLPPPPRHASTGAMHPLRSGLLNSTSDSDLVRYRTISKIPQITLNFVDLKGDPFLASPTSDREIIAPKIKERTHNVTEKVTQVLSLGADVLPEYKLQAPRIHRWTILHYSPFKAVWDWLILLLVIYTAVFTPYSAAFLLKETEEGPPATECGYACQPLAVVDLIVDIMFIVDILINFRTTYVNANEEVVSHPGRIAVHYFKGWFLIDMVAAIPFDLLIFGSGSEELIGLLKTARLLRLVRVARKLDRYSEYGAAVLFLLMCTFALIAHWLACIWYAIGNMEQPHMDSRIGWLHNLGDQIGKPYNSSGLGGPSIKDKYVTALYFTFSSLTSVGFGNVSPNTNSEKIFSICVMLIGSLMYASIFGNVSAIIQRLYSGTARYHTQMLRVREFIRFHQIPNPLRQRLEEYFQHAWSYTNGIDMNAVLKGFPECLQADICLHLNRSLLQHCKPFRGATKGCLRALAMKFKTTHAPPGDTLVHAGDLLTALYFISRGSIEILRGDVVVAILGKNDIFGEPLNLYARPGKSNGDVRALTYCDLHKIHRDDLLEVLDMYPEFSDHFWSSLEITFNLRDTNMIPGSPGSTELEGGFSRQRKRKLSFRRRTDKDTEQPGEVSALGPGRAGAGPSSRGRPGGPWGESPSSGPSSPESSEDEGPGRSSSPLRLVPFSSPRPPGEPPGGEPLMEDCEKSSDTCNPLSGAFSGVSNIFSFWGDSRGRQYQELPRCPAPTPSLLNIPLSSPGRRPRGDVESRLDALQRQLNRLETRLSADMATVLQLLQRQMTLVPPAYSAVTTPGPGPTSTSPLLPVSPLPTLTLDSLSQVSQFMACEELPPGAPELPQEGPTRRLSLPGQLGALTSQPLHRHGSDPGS

First: COc1ccc(NS(=O)(=O)c2cc(NC(=O)COc3ccccc3F)ccc2OC)cc1
Second: COC(=O)c1ccc(NC(=O)CN(C)S(=O)(=O)c2ccc(OC)c(C)c2)cc1
The “hERG current change (%, negative = inhibition) at 1uM” value of the first is lower: 2.9% for the first, 13.9% for the second.

First: CN(Cc1ccccc1)C(=O)COc1cccnc1[N+](=O)[O-]
Second: Cc1ccc(N(CC(=O)NCc2ccccc2)C(=O)CCC(=O)Nc2nccs2)cc1
The “hERG current change (%, negative = inhibition) at 1uM” value of the first is higher: 14.1% for the first, 11.7% for the second.

Going from O=C(Nc1nccs1)c1c(O)c2c([nH]c1=O)CCCC2 to O=C(Nc1nc2c(s1)CCCC2)C1CCCN1C(=O)c1cccs1 (centres unmarked), the “hERG current change (%, negative = inhibition) at 1uM” value falls from 10.1% to -3.29%.

Compared with Cc1onc(-c2ccccc2)c1C(=O)NCCc1c[nH]c2ccccc12, NNC(=O)c1nc(-c2ccccc2)cc(-c2ccccc2)n1 is higher in “hERG current change (%, negative = inhibition) at 1uM” value: -1.95% for the first, 3.55% for the second.

Compared with CCc1cc(=O)oc2cc(OCC(=O)N3CCCc4ccccc43)ccc12, CC1Cc2ccccc2N1Cc1nc2cc(C(F)(F)F)ccc2c(=O)[nH]1 (centres unmarked) is lower in “hERG current change (%, negative = inhibition) at 1uM” value: 6.51% for the first, 3.71% for the second.

Going from CC(C)(C)C(=O)COC(=O)c1cccc(NC(=O)c2ccco2)c1 to Cc1ccc(Cl)cc1NC(=O)COC(=O)c1ccc(N2CCCC2)c([N+](=O)[O-])c1, the “hERG current change (%, negative = inhibition) at 1uM” value falls from 16.4% to 6.19%.

First: Cc1ccccc1OCC(O)Cn1c(=N)n(CCN2CCOCC2)c2ccccc21.Cl (centres unmarked)
Second: CCn1c(COc2ccccc2C)nnc1SCC(=O)OC
The “hERG current change (%, negative = inhibition) at 1uM” value of the first is lower: -25.3% for the first, -3.42% for the second.

First: COc1ccc(CCC(=O)OCC(=O)c2ccc(C)cc2)cc1
Second: O=C(CCCC(=O)c1ccc(O)cc1)c1ccc(O)cc1
The “hERG current change (%, negative = inhibition) at 1uM” value of the first is higher: 6.18% for the first, -0.188% for the second.

Going from COc1cc(C)c(NC(=O)COc2cccc3c2OC(C)(C)C3)cc1OC to COc1ccc(CCC(=O)Nc2nc3c(s2)CN(C)CC3)cc1OC, the “hERG current change (%, negative = inhibition) at 1uM” value rises from 10.8% to 16.7%.

Compared with CC(=O)Nc1ccc(OC(=O)c2cc3cc(Br)ccc3oc2=O)cc1, COc1cccc(CC(=O)Nc2ccc(-c3csc(C)n3)cc2)c1 is lower in “hERG current change (%, negative = inhibition) at 1uM” value: 12.5% for the first, 10.5% for the second.

Compared with CC(C)N1CCN(c2ccc(O)cc2)CC1, CC1CCCCC12NC(=O)N(CC(=O)Nc1ccc(N3CCOCC3)cc1)C2=O (centres unmarked) is lower in “hERG current change (%, negative = inhibition) at 1uM” value: 6.22% for the first, 4.35% for the second.

Compared with CC(C)OC(=O)CSc1nnc(CNc2cccc(Cl)c2)n1C, COc1cccc(NC2=NCCCCC2)c1 is higher in “hERG current change (%, negative = inhibition) at 1uM” value: 3.68% for the first, 7.57% for the second.

Going from O=C1NC2=C(C(=O)CCC2)C(c2ccccc2[N+](=O)[O-])N1 (centres unmarked) to CC1=NN(c2cccc([N+](=O)[O-])c2)C(=O)C1, the “hERG current change (%, negative = inhibition) at 1uM” value rises from 16% to 19.7%.

First: O=C(NCC(O)c1ccccc1)c1ccc(Cl)c(S(=O)(=O)N2CCCCC2)c1 (centres unmarked)
Second: O=C(CC(c1ccccc1)c1ccccc1)NCC(O)c1ccc([N+](=O)[O-])cc1 (centres unmarked)
The “hERG current change (%, negative = inhibition) at 1uM” value of the first is higher: 12.4% for the first, -13.4% for the second.

Compared with C/C(=N\NC(=O)c1ccccc1O)c1ccc(NC(=O)Cc2ccccc2)cc1, O=C(COc1ccc([N+](=O)[O-])cc1)NNC(=S)NC(=O)c1ccc(Br)cc1 is higher in “hERG current change (%, negative = inhibition) at 1uM” value: -9.34% for the first, 7.7% for the second.

Compared with COc1ccc(NC2CCCN(C(=O)c3ccc(C(C)=O)cc3)C2)cc1 (centres unmarked), COc1ccc(CCNC(=O)C2CCN(S(=O)(=O)c3ccc(SC)cc3)CC2)cc1 is higher in “hERG current change (%, negative = inhibition) at 1uM” value: 0.644% for the first, 14.8% for the second.

Compared with COc1ccc(CCN(C)C(=O)C2CCN(C(=O)Nc3ccccc3)CC2)cc1OC, CCOC(=O)N1CCN(C(=O)/C(=C/c2ccc(Cl)cc2)NC(=O)c2ccccc2)CC1 is lower in “hERG current change (%, negative = inhibition) at 1uM” value: 5.21% for the first, -38.6% for the second.

Compared with CC(C)(C)NS(=O)(=O)c1ccc(Oc2ncc(C(F)(F)F)cc2Cl)cc1, Cc1ccc(CNS(=O)(=O)c2ccc(-c3cnc(C4CC4)o3)cc2)cc1 is lower in “hERG current change (%, negative = inhibition) at 1uM” value: 18.1% for the first, 15.8% for the second.

Compared with Nc1ccc(Oc2ccc3c(c2)C(=O)NC3=O)cc1, CCOc1ccc(C2=CC(=O)C[C@H](c3ccc(OC)cc3)C2)cc1 is higher in “hERG current change (%, negative = inhibition) at 1uM” value: 10.9% for the first, 13.3% for the second.

Going from CC(C)[C@H](NC(=O)[C@@H]1CSC2c3ccccc3C(=O)N21)C(=O)NCc1ccco1 (some centres unmarked) to O=C(NCc1ccco1)c1ccc(-c2ccc(Cl)cc2)o1, the “hERG current change (%, negative = inhibition) at 1uM” value falls from 18% to 6.11%.

First: CCCN1CCC(=O)N(CCO)CC1
Second: O=C(NCCN1CCOCC1)c1cc(S(=O)(=O)NCCCN2CCCC2=O)ccc1Cl
The “hERG current change (%, negative = inhibition) at 1uM” value of the first is lower: 3.69% for the first, 8.55% for the second.

Compared with O=C(NCc1ccco1)C12CC3CC(CC(C3)C1)C2, C/C(=N\OCC(=O)NC12CC3CC(CC(C3)C1)C2)c1cc2ccccc2o1 is lower in “hERG current change (%, negative = inhibition) at 1uM” value: 12.7% for the first, -4.89% for the second.

Going from CCOC(=O)C1CCN(Cc2ccccn2)CC1.O=C(O)C(=O)O to O=C(C1CCCN(Cc2ccccc2)C1)N1CCCCC1.O=C(O)C(=O)O (centres unmarked), the “hERG current change (%, negative = inhibition) at 1uM” value falls from 16% to 13%.

First: O=C(CCCc1nc(-c2ccc(Cl)cc2)no1)N1CCOCC1
Second: COc1ccc(-n2ccnc2CN2CCN(C3CCCC3)C(CCO)C2)cc1 (centres unmarked)
The “hERG current change (%, negative = inhibition) at 1uM” value of the first is lower: -9.31% for the first, 5.31% for the second.

First: CC(c1ccco1)N(C(=O)c1ccccc1NS(=O)(=O)c1ccc(Cl)c([N+](=O)[O-])c1)c1ccccn1 (centres unmarked)
Second: Cc1ccc(S(=O)(=O)N(C)C)cc1NC(=O)COC(=O)Cc1n[nH]c(=O)c2ccccc12
The “hERG current change (%, negative = inhibition) at 1uM” value of the first is lower: 3.81% for the first, 10.7% for the second.

Compared with CCOC(=O)c1sc(NC(=O)CS(=O)(=O)c2ccc(C)cc2)nc1C, Cc1ccc(NC(=O)CSc2nc(C)c(C)c(C)n2)c([N+](=O)[O-])c1 is higher in “hERG current change (%, negative = inhibition) at 1uM” value: 8.72% for the first, 9.55% for the second.

Compared with Cc1cc(C)n(CC2CC(=O)N(c3ccc(F)c(Cl)c3)C2=O)n1 (centres unmarked), Cc1cc(/C=N/Nc2ccc([N+](=O)[O-])cn2)c(C)n1-c1cccc(C(=O)O)c1 is higher in “hERG current change (%, negative = inhibition) at 1uM” value: 8.51% for the first, 11.3% for the second.

First: COc1cccc(C2C=C(c3ccc(OC)cc3OC)Nc3nnnn32)c1 (centres unmarked)
Second: CCOc1ccccc1NC(=O)Nn1cnnc1
The “hERG current change (%, negative = inhibition) at 1uM” value of the first is higher: 13.8% for the first, 9.42% for the second.
